From the supplement of paper PMC4967469
A lower IC50 marks a more sensitive line; a fit beyond the top or the lowest dose is shown as a bound at that dose. AUC, from the same fit, is the share of area under the viability curve across the 256-fold dose range; it is 1 without any effect and falls as sensitivity rises. For part of these data: A top dose marked as inferred comes from the curve model; the source does not state it.

Tests used:
Experiment in all cases: Viability of human cancer cell lines after 72 h of drug (GDSC screen)
XMD15-27 = compound: C=CC(=O)Nc1ccc(C(=O)c2sc(Nc3ccc(N4CCN(C)CC4)cc3OC)nc2N)cc1 [XMD15-27]; conditions: top dose 10.24 µM; top dose inferred
Protocol: (§1)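 Human cancer cell lines in 384-well plates, medium with 10% serum, drug for 72 h over a 256-fold dose range (nine 2-fold or five 4-fold steps up to the top dose). Adherent lines were fixed and stained with the nucleic acid dye Syto60, suspension lines read with resazurin; signal relative to control wells, capped at 0 and 100%. One two-parameter sigmoid per drug and line, fitted in a mixed model over all curves with the slope shared within a line.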

SL 0101-1 = compound: CC(=O)O[C@@H]1[C@@H](OC(C)=O)[C@@H](O)[C@H](Oc2c(-c3ccc(O)cc3)oc3cc(O)cc(O)c3c2=O)O[C@H]1C [SL 0101-1]; conditions: top dose 10 µM; top dose inferred
Protocol: as §1

Temsirolimus = compound: CO[C@H]1C[C@@H]2CC[C@@H](C)[C@@](O)(O2)C(=O)C(=O)N2CCCC[C@H]2C(=O)O[C@H]([C@H](C)C[C@@H]2CC[C@@H](OC(=O)C(C)(CO)CO)[C@H](OC)C2)CC(=O)[C@H](C)/C=C(\C)[C@@H](O)[C@@H](OC)C(=O)[C@H](C)C[C@H](C)/C=C/C=C/C=C/1C [Temsirolimus]; conditions: top dose 0.2 µM
Protocol: as §1

Cell Line | AUC (XMD15-27) | IC50 (XMD15-27) | AUC (SL 0101-1) | IC50 (SL 0101-1) | AUC (Temsirolimus) | IC50 (Temsirolimus)
OCI-AML3 (acute myeloid leukaemia, suspension) | 0.974 | > 10.2 µM | 0.984 | > 10 µM | 0.985 | > 0.2 µM
LS-180 (large intestine, adherent) | 0.985 | > 10.2 µM | 0.954 | > 10 µM | 0.93 | > 0.2 µM
COLO-205 (large intestine, suspension) | 0.988 | > 10.2 µM | 0.967 | > 10 µM | 0.932 | > 0.2 µM
H3255 (lung adenocarcinoma, adherent) | 0.984 | > 10.2 µM | 0.978 | > 10 µM | 0.827 | 0.156 µM
SHP-77 (small cell lung carcinoma, semi-adherent) | 0.992 | > 10.2 µM | 0.889 | 9.32 µM | 0.973 | > 0.2 µM
KNS-42 (glioma, adherent) | 0.984 | > 10.2 µM | 0.975 | > 10 µM | 0.782 | 0.101 µM
SW1417 (large intestine, adherent) | 0.983 | > 10.2 µM | 0.976 | > 10 µM | 0.986 | > 0.2 µM
NCI-H1435 (lung adenocarcinoma, semi-adherent) | 0.993 | > 10.2 µM | 0.992 | > 10 µM | 0.977 | > 0.2 µM
H290 (mesothelioma, adherent) | 0.989 | > 10.2 µM | 0.989 | > 10 µM | 0.626 | 0.0269 µM
HC-1 (hairy cell leukaemia, suspension) | 0.984 | > 10.2 µM | 0.986 | > 10 µM | 0.836 | 0.125 µM
OS-RC-2 (kidney, adherent) | 0.976 | > 10.2 µM | 0.9 | > 10 µM | 0.533 | 0.016 µM
ALL-SIL (T-cell leukaemia, suspension) | 0.915 | > 10.2 µM | 0.984 | > 10 µM | 0.77 | 0.0657 µM
LB2518-MEL (melanoma, adherent) | 0.987 | > 10.2 µM | 0.984 | > 10 µM | 0.962 | > 0.2 µM
EFO-21 (ovary, adherent) | 0.971 | > 10.2 µM | 0.969 | > 10 µM | 0.941 | > 0.2 µM
JSC-1 (B-cell lymphoma, suspension) | 0.926 | > 10.2 µM | 0.987 | > 10 µM | 0.837 | 0.132 µM
SK-PN-DW (Ewing sarcoma, adherent) | 0.986 | > 10.2 µM | 0.969 | > 10 µM | 0.567 | 0.0192 µM
NCI-H810 (large cell lung carcinoma, adherent) | 0.981 | > 10.2 µM | 0.983 | > 10 µM | 0.919 | > 0.2 µM
P31-FUJ (acute myeloid leukaemia, suspension) | 0.995 | > 10.2 µM | 0.996 | > 10 µM | 0.985 | > 0.2 µM

Cell Line | AUC (XMD15-27) | IC50 (XMD15-27) | AUC (SL 0101-1) | IC50 (SL 0101-1) | AUC (Temsirolimus) | IC50 (Temsirolimus)
JIMT-1 (breast, adherent) | 0.985 | > 10.2 µM | 0.974 | > 10 µM | 0.37 | 0.0053 µM
EFM-192A (breast, adherent) | 0.985 | > 10.2 µM | 0.976 | > 10 µM | 0.72 | 0.0568 µM
IST-SL2 (small cell lung carcinoma, suspension) | 0.974 | > 10.2 µM | 0.989 | > 10 µM | 0.74 | 0.0601 µM
Calu-3 (lung adenocarcinoma, adherent) | 0.983 | > 10.2 µM | 0.949 | > 10 µM | 0.87 | > 0.2 µM
NCI-H526 (small cell lung carcinoma, suspension) | 0.938 | > 10.2 µM | 0.989 | > 10 µM | 0.894 | > 0.2 µM
SW948 (large intestine, adherent) | 0.982 | > 10.2 µM | 0.943 | > 10 µM | 0.979 | > 0.2 µM
NCI-SNU-1 (stomach, suspension) | 0.942 | > 10.2 µM | 0.972 | > 10 µM | 0.976 | > 0.2 µM
YH-13 (glioma, adherent) | 0.954 | > 10.2 µM | 0.981 | > 10 µM | 0.609 | 0.0253 µM
MKN28 (stomach, adherent) | 0.98 | > 10.2 µM | 0.984 | > 10 µM | 0.767 | 0.076 µM
KARPAS-620 (haematopoietic neoplasm, suspension) | 0.881 | 8.09 µM | 0.99 | > 10 µM | 0.825 | 0.0975 µM
NCI-H1792 (lung adenocarcinoma, adherent) | 0.981 | > 10.2 µM | 0.987 | > 10 µM | 0.88 | 0.172 µM
42-MG-BA (glioma, adherent) | 0.973 | > 10.2 µM | 0.976 | > 10 µM | 0.507 | 0.0131 µM
OVCA420 (ovary, adherent) | 0.982 | > 10.2 µM | 0.982 | > 10 µM | 0.904 | > 0.2 µM
CAL-39 (cervix, adherent) | 0.986 | > 10.2 µM | 0.984 | > 10 µM | 0.628 | 0.0286 µM
SNU-C1 (large intestine, suspension) | 0.98 | > 10.2 µM | 0.95 | > 10 µM | 0.705 | 0.063 µM
LXF-289 (lung adenocarcinoma, adherent) | 0.984 | > 10.2 µM | 0.982 | > 10 µM | 0.591 | 0.0221 µM
HCC1569 (breast, adherent) | 0.964 | > 10.2 µM | 0.963 | > 10 µM | 0.946 | > 0.2 µM
